Results on 59 molecules are retold here after PubChem BioAssay AID504444 (National Center for Advancing Translational Sciences (NCATS), 2011).

Several values for one entry are separate records, joined by “and”; a condition that tells them apart may be missing. Identical values can stand only once. The campaign covered roughly 360,000 compounds. About 7,500 (2.1%) were called active. Roughly 20% stayed inconclusive and do not appear here. Calls come from the whole dose curve; as a rule, active = well fitted inhibition curve with a large enough effect; inconclusive = small, poorly fitted or top-dose-only effect, or effect the other way; inactive = flat fitted curve, though single readings scatter. The list shows a part of the results, in another mix than the full data. Some structures have more than one record in an assay (separate samples or runs), and their calls can disagree.
% is set by controls: 0 for no effect and ±100 for the full control effect; potency is the fitted concentration of half-maximal effect.

This experiment in a line: Nrf2 qHTS screen for inhibitors. Note: nearly all actives have a fitted effect of over 60% in size. To be noted: A549 ARE-Fluc reporter, luciferase luminescence, 18-24 h; series mostly up to 46 µM; activity change, negative = inhibition: at the top concentration. The method in brief: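 Concentration-response testing used A549 ARE_Fluc cells at 5000 cells/well. Following an 18-24 h compound incubation, viability was read by fluorescence (Ex 405/Em 525) and luciferase output by luminescence.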
`O=[N+]([O-])c1ccc(Cl)c(C[n+]2cccc3ccccc32)c1`: the Potency was active: 11.6 µM.
For `CCC(=O)NC(c1ccco1)c1cc(Cl)c2cccnc2c1O` (centres undefined), the “activity change, negative = inhibition” value is inactive: -4.27%.
As to `O=C(c1ccc2c(=O)n(CCc3ccccc3)c(=O)[nH]c2c1)N1CCN(c2ccc(F)cc2)CC1`, the activity change, negative = inhibition was inactive: -8.7% [at 9.27 µM].
Regarding `CC(=C\C(=O)O)/C(=C/c1ccccc1)C(=O)O`, the “activity change, negative = inhibition” value is inactive: -13.3%.
For the molecule `CN1C(=O)Cc2cc(S(=O)(=O)N3CCN(c4ccccc4F)CC3)ccc21`, the “activity change, negative = inhibition” value was inactive: 12.9%.
As to `O=S(=O)(c1ccc(SCCOc2ccc(Br)cc2)nc1)N1CCCC1`, the Potency is active: 16.4 µM.
For `Cc1ccccc1C(=O)c1cccn1CC(=O)NCc1ccccc1`, the “activity change, negative = inhibition” value is inactive: 0.903%.
Turning to `COc1ccc(NC(=O)CSc2nc3ccccc3nc2N2CCOCC2)c(OC)c1`, the “activity change, negative = inhibition” value was inactive: -9.71%.
With `COc1ccc(CN=C(N)N=C(N)N)cc1Cl`, the Potency was active: 16.4 µM.
As for `COc1cc(C(=O)Nc2ccc3nc4n(c(=O)c3c2)CCCCC4)cc(OC)c1OC`, the “activity change, negative = inhibition” value was inactive: 5.77%.
For the molecule `CCc1ccc(NC(=O)Cn2c(=O)c3cccn3c3ccccc32)cc1`, the “activity change, negative = inhibition” value was inactive: 18.1%.
On to `Cc1cccc(NC(=O)CCn2cnnn2)c1`, for which the “activity change, negative = inhibition” value was inactive: 0.916%.
As to `CCN(CC)C(=O)Cn1c(=O)n(-c2ccccc2)c(=O)c2c3c(sc21)CCC3`, the “activity change, negative = inhibition” value was inactive: -2.91%.
Regarding `O=C(N/C(=C/c1ccc(Br)cc1)C(=O)N1CCCC1)c1cccs1`, the “activity change, negative = inhibition” value is inactive: 3.09%.
Take `Cc1cc(-c2ccccc2)cc(-c2ccccc2)[n+]1C`: the Potency was active: 11.6 µM.
As to `CCN1C(=O)[C@@H]2[C@@H](c3ccc(-c4cccc(Cl)c4)c(OC)c3)N3CCCC[C@@]3(C(=O)OC)[C@@H]2C1=O`, the “activity change, negative = inhibition” value was inactive: -17.1%.
For the molecule `C=CC[C@@H](CC(=O)N[C@H](CO)Cc1ccccc1)C(=O)N[C@@H](COC(=O)[C@@H](CC=C)CC(=O)OC(C)(C)C)Cc1ccccc1`, the “activity change, negative = inhibition” value is inactive: -14.6%.
Turning to `CCOc1ccc(CCNC(=O)CS(=O)(=O)Cc2nc(-c3ccc(OC)cc3)oc2C)cc1`, the “activity change, negative = inhibition” value was inactive: -16.5%.
Take `CCOc1ccc(NC(=O)c2sc3nc4n(c(=O)c3c2C)CCC4)cc1`: the “activity change, negative = inhibition” value was inactive: 1.36%.
Still for that read-out and setting: in the case of `CCCCN(CC)CCNC(=O)C1CCN(S(=O)(=O)c2cccc3nsnc23)CC1` it was inactive: 10.2%; in that of `N[C@@H](Cc1cc(I)c(Oc2ccc(O)c(I)c2)c(I)c1)C(=O)O`, inactive: -3.97%.
In the case of `O=C(Nc1ccc(C(F)(F)F)cc1)c1csc(-c2ccncc2)n1`, the Potency was active: 18.4 µM.
Consider `CC(=O)c1ccc(N2CCN(c3ccc4cc(S(=O)(=O)N5CCC(C)CC5)ccc4n3)CC2)cc1`, for which the “activity change, negative = inhibition” value is inactive: 7.24%.
With `Cc1ccc(CNC(=O)Cn2cccc2C(=O)c2ccccc2C)cc1`, the “activity change, negative = inhibition” value was inactive: 15.1%.
On the same count and under the same terms, in the case of `CCC1CN(C(=O)NCc2ccc(C)cc2)c2cc(C)ccc2O1` (centres undefined) it was inactive: -20.9%; in that of `Cc1cccc(C(=O)Nc2ccc(O)c3c(=O)cc(-c4ccccc4Cl)oc23)c1`, inactive: -26.6%; in that of `COc1ccccc1NC(=O)CN(C)S(=O)(=O)c1cccc2cccnc12`, inactive: -0.0194%.
On to `Cc1ccc(CNC(=O)CCc2c(C)nn(-c3ccc(N4CCOCC4)nn3)c2C)cc1`, for which the “activity change, negative = inhibition” value was inactive: 6.51%.
As for `CC(=O)N1c2ccc(S(=O)(=O)NCc3ccccc3Cl)cc2CC1C` (centres undefined), the “activity change, negative = inhibition” value was inactive: -15.1%.
For `COc1ccc(C)cc1NC(=O)c1cc(S(=O)(=O)N2CCOCC2)cn1C`, the “activity change, negative = inhibition” value is inactive: -13.6%.
Consider `CC(=C/c1ccccc1)/C=N/NC(=O)c1cc(C)oc1C`, for which the “activity change, negative = inhibition” value was inactive: 10.1%.
In the case of `Cn1c(SCC(=O)N/N=C/C=C\c2ccccc2[N+](=O)[O-])nc2ccccc21`, the “activity change, negative = inhibition” value was inactive: 18.7%.
`Cn1cc(C(=O)N/N=C/C(Br)=C/c2ccccc2)ccc1=O`: the “activity change, negative = inhibition” value is inactive: 16.3%.
Take `Oc1ccc(COc2ccccc2Cl)c2cccnc12`: the Potency was active: 18.4 µM.
Consider `CCc1cc[n+](C(C(=S)Nc2cccc(C)c2)=C([O-])c2ccc(C)c([N+](=O)[O-])c2)cc1`, for which the “activity change, negative = inhibition” value is inactive: 7.59%.
For the molecule `COc1cccc(NS(=O)(=O)c2ccc3c(c2)[C@H]2C=CC[C@H]2[C@@H](c2ccccc2Cl)N3)c1`, the Potency is active: 20.6 µM.
With `Cc1ccccc1NS(=O)(=O)c1nnc(NC(=O)c2ccc(Cl)cc2)s1`, the “activity change, negative = inhibition” value was inactive: 5.14%.
`CC(C)(C)c1ccc(C2CC2C(=O)N/N=C\c2ccc[nH]2)cc1` (centres undefined): the Potency was active: 1.64 µM.
Consider `COc1ccc(C(=O)Nc2ccc(S(=O)(=O)Nc3cc(C)nc(C)n3)cc2)cc1`, for which the “activity change, negative = inhibition” value was inactive: 8.6%.
Take `OCC[C@H]1C[C@@H](O)[C@H](O)[C@]2(Cc3ccccc3CO2)O1`: the “activity change, negative = inhibition” value is inactive: 3.74%.
`O=C(c1cc(COc2cccc(C(F)(F)F)c2)on1)N1CCC(c2ccncc2)CC1`: the Potency is active: 13 µM.
Take `COC(=O)[C@@]12CCCCN1[C@H](c1ccc(SC3CCCCC3)cc1)[C@H]1C(=O)N(C)C(=O)[C@H]12`: the “activity change, negative = inhibition” value is inactive: -17.8%.
For the molecule `Nc1nc(=S)c2ncn(C3OC(CO)C(O)C3O)c2[nH]1` (centres undefined), the “activity change, negative = inhibition” value was inactive: -7.75%.
`CCC(Oc1ccccc1)C(=O)Nc1nnc(S(=O)(=O)Nc2ccccc2)s1` (centres undefined): the “activity change, negative = inhibition” value is inactive: -13.1%.
The same measure, in the same setting: in the case of `COCCNC(=O)CCC(=O)NNc1nc2ccccc2c2nc(-c3ccccc3)nn12` it was inactive: -9.82%; in that of `C[C@@H](C(=O)NCCc1c[nH]c2ccccc12)[C@@H]1C[C@@]1(C)[C@@H](NC(=O)OCc1ccccc1)c1ccccc1`, inactive: -25%.
The same measure, in the same setting: in the case of `COc1ccc(C2/C=C\CN(C(=O)OCc3ccccc3)CC(=O)N2Cc2ccc(F)cc2)cc1` (centres undefined) it was inactive: -12.8%.
Same read-out and setting: the figure for `Cc1ccc(-n2c(O)c(/C=N/n3cnnc3)c3ccccc3c2=O)cc1` is inactive: -29.9%.
Turning to `Nc1ncnc2c1C(c1ccccc1)c1c(ccc3ccccc13)O2` (centres undefined), the Potency entry is “inactive and active: 18.4 µM”.
Take `CC(C)CCNC(=O)CCC(=O)NNc1nc2ccccc2c2nc(-c3ccccc3)nn12`: the “activity change, negative = inhibition” value is inactive: -12.7%.
`Cc1ccc(-n2c(=O)c3ccc(C(=O)NCc4ccco4)cc3n(Cc3ccccc3C#N)c2=O)cc1`: the “activity change, negative = inhibition” value was inactive: 7.3%.
Regarding `S=C(NC1CC2CCC1C2)N1CCN(c2cccc(Cl)c2)CC1` (centres undefined), the Potency was active: 16.4 µM.
As to `CC(C)(C)OC(=O)NCCCCCNC(=O)c1nc[nH]c1C(=O)NCCCCCNC(=O)OC(C)(C)C`, the Potency is active: 13 µM.
With `CCOC(=O)C1=CC[C@H]2c3c(c4ccccc4n3C)C(=O)C1N2C(=O)OC(C)(C)C`, the “activity change, negative = inhibition” value is inactive: -11.6%.
Same read-out and setting: the figure for `CC(C)CC(=O)Nc1nnc(S(=O)(=O)N2CCCCCC2)s1` is inactive: 20.2%; for `C=CC[C@H](CC(=O)N(CCO)Cc1ccccc1)C(=O)N[C@H](C)COC(=O)[C@@H](CC=C)Cc1ccc(F)cc1` it is inactive: -25.3%.
The same measure, in the same setting: in the case of `COc1ccc(-c2cc(C)no2)cc1S(=O)(=O)N1CCN(c2cccc(C)c2)C(C)C1` (centres undefined) it was inactive: 0.271%; in that of `CCc1ccc(NC(=O)CSc2nc3nc(C)cc(C)n3n2)cc1`, inactive: -27.9%.
`COc1ccc2cc(CN(CCO)C(=O)c3ccc(Br)cc3)c(=O)[nH]c2c1`: the Potency is active: 20.6 µM.
